PubChem BioAssay AID1030 (National Center for Advancing Translational Sciences (NCATS), 2008)
In all, about 220,000 compounds went through this assay and about 16,000 (7.3%) were called active. This list was built around the results that the source calls inconclusive (neither active nor inactive); the mix of calls is not that of the screen. Calls follow the shape of the dose curve; as a rule, active = well fitted inhibition curve with a large enough effect (not every such curve was filed as active); inconclusive = small, poorly fitted or top-dose-only effect, or another doubt; inactive = no such curve, though single readings can be large or run the other way. A potency beside an inconclusive call is a rough fit, not a confirmed value. Square brackets hold non-standard residues; d marks the D form. Peptide text beside a SMILES is read from it. * marks the point of attachment. ξ: configuration not given here. ξY = NC(Cc1ccc(O)cc1)C(=O)O; Cbz = O=C(OCc1ccccc1)*; OtBu = CC(C)(C)O*; tBu = CC(C)(C)*

target: Aldehyde dehydrogenase 1A1 (Homo sapiens) (UniProt P00352); test: qHTS Assay for Inhibitors of Aldehyde Dehydrogenase 1 (ALDH1A1); settings: Purified ALDH1A1, NADH fluorescence, propionaldehyde substrate; series mostly up to 75.3 µM;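 as to activity, negative = inhibition: plate controls were no enzyme wells and a reference inhibitor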
UniProt P00352, sequence (P00352 whole entry, looked up): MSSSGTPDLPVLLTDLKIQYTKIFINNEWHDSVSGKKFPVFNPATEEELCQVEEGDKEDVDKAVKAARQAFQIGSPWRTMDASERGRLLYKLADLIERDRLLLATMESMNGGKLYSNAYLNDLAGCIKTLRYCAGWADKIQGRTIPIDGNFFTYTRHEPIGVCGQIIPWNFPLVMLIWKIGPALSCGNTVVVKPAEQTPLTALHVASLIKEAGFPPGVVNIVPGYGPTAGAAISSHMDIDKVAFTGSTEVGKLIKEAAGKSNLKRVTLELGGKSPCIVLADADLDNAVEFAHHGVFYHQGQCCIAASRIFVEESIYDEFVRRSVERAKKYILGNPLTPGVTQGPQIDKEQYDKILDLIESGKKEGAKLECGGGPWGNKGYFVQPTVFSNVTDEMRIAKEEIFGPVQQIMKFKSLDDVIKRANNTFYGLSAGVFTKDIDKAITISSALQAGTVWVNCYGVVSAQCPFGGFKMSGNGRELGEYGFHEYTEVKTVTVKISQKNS
Potency is read from the fitted curve at half-maximal effect; tags tell the direction and shape of the fitted curve.

Potency, active:
COc1ccc(COc2ccc(C3C(S(=O)(=O)c4ccccc4)CON3C)cc2OC)cc1 (configuration not stated) 8.91 µM
Cc1cc(-c2n[nH]c(=S)n2/N=C/c2ccc(Cl)c([N+](=O)[O-])c2)n[nH]1 14.1 µM
CCOc1ccc(C(=O)NCC(=O)OCc2cc(C(C)=O)ccc2OC)cc1 3.55 µM
COc1ccc(N2C(=S)NC3N2C(=S)NC3(C)c2ccccc2)cc1 (configuration not stated) 25.1 µM
O=C(CSc1nnc(SCc2ccccc2)s1)N/N=C/C=C/c1ccco1 14.1 µM
Cn1cc(C=O)c2cc(F)ccc21 2.24 µM
CN(C)c1ccc(NS(=O)(=O)c2ccc(-c3csnn3)cc2)cc1 8.91 µM
O=C(O)c1ccccc1NS(=O)(=O)c1ccc(NNC(=S)Nc2ccc(OC(F)F)cc2)c([N+](=O)[O-])c1 3.55 µM

Potency, inactive:
O=C(CCSc1ccccc1)Nc1ccc(OCc2ccccc2)cc1
Cc1ccccc1-c1nsc(SCC(=O)c2ccc(Cl)cc2)n1
COc1cccc(C(=O)/C=C/Nc2cccc(O)c2)c1
Nc1c(C(=O)NCCc2ccc(Cl)cc2)sc2ccc(S(=O)(=O)N3CCCCC3)cc12
CCCCCCCC1=CC2=CC(=O)C(C)(OC(C)=O)C(=O)C2=CN1CCc1ccccc1 (configuration not stated)
Cc1cc(C)nc(/N=C2\NC(=O)CC(C(=O)O)N2c2ccc(Oc3ccccc3)cc2)n1 (configuration not stated)
Nc1cc(N2CCOCC2)c(Cl)cc1[N+](=O)[O-]
O=C(O)CC(c1cccc2ccccc12)n1cccc1 (configuration not stated)
COc1ccccc1NC(=O)C(C)N1CCN(C/C=C/c2ccccc2)CC1 (configuration not stated)
Cc1cc(C)c(N(C(=O)Cn2nnc3ccccc32)C(C(=O)NC(C)(C)C)c2ccsc2)c(C)c1 (configuration not stated)
Cc1cc(NC(=O)CSc2ccc3nnc(-c4cccs4)n3n2)no1
COc1cc(NC(=O)CN2CC(c3ccccc3)CC2=O)cc(OC)c1 (configuration not stated)
Fc1ccc(N2CCN(Cc3cnc(Oc4ccc(Br)cc4)s3)CC2)cc1
Cc1ccc(C(=O)CSc2ncnc3sc4c(c23)CCC(C)C4)cc1 (configuration not stated)
NC(=O)C1CCN(c2ccc(S(=O)(=O)N3CCC(Cc4ccccc4)CC3)cn2)CC1
O=C1c2ccccc2-c2onc3ccc(Oc4ccccc4)c1c23
CCCN1C(=O)NC2(O)C(=O)c3ccccc3C12O (configuration not stated)
COC(=O)c1ccccc1NC(=O)CSc1n[nH]c(C)n1
Cc1ccc(N(C(=O)Cn2nnc(-c3ccccc3)n2)C(C(=O)NC2CCCCC2)c2ccccn2)cc1C (configuration not stated)
CC(NC(=O)/C(C#N)=C/c1ccc(Cl)c([N+](=O)[O-])c1)c1ccccc1 (configuration not stated)
N=C1SCC(=O)N1c1ncc(Cc2cccc(Cl)c2)s1
CC(=O)Nc1cccc2ncccc12
NC(=O)c1ccc(N=Nc2c(-c3ccccc3)[nH]n(-c3ccccc3)c2=O)cc1

Potency, inconclusive:
COC(=O)c1c(C)c(C)nc(N)c1C#N 28.2 µM [inhibitor, partial curve]
CCOc1ccc(C(=O)Nc2cc(-c3nc4ccccc4[nH]3)ccc2C)cc1[N+](=O)[O-] 35.5 µM [inhibitor, single point]
COc1ccc(N2CCN(C(=O)CCNS(=O)(=O)c3ccc4c(c3)CCC(=O)N4)CC2)cc1 35.5 µM [inhibitor, single point]
CC(=O)c1sc(N/N=C2\CC3CCC2(C)C3(C)C)nc1C (configuration not stated) 39.8 µM [inhibitor, single point]
COC(=O)c1c(NC(=O)C(C)C)sc2c1C(C(=O)OC)CC2 (configuration not stated) 39.8 µM [inhibitor, single point]
COc1ccc(C(=O)Nc2cnc3sc(C)nn3c2=O)cc1 22.4 µM [inhibitor, partial curve]
CCS(=O)(=O)c1ccc2oc(Nc3cc(C)cc(C)c3)nc2c1 39.8 µM [inhibitor, single point]
Cc1c(C(=O)N2CCC(C)CC2)oc2ccc(S(=O)(=O)N3CCC4(CC3)OCCO4)cc12 25.1 µM [inhibitor, partial curve]
Cc1cc(NCCCn2ccnc2)n2nc(-c3ccc(Cl)cc3)cc2n1 39.8 µM [inhibitor, single point]
COc1ccc(-c2c(C#N)c(N)nc3c2CCC3)cc1 35.5 µM [inhibitor, single point]
CC1(C)Cc2ccccc2-c2c1c(=O)n(Cc1ccccc1)c1nnnn21 39.8 µM [inhibitor, single point]
O=C(COC(=O)[C@H](Cc1ccccc1)NS(=O)(=O)c1ccccc1F)NC1CCCCC1 14.1 µM [inhibitor, partial curve, poor fit]
CCOC(=S)SCC(=O)Nc1ncc(C)s1 35.5 µM [inhibitor, single point]
COc1nc(NCCC2=CCCCC2)nc(OC)n1 39.8 µM [inhibitor, single point]
CC(C)(C)c1ccc(S(=O)(=O)N2CCCC2C(=O)NC2=NCCS2)cc1 (configuration not stated) 28.2 µM [inhibitor, single point]
O=C(CSc1nnc(Cc2cccs2)n1Cc1ccco1)Nc1cc(Cl)cc(Cl)c1 39.8 µM [inhibitor, single point]
O=C(Nc1ccc(S(=O)(=O)N2CCCC2)cc1)c1ccc(OCC2CCCO2)cc1 (configuration not stated) 39.8 µM [inhibitor, single point]
CC(NS(=O)(=O)c1ccccc1)C(c1cccs1)N1CCOCC1 (configuration not stated) 39.8 µM [inhibitor, single point]
N#C/C(C(=O)NCc1ccccc1)=C1/SC(Cc2ccc(Cl)cc2)C(=O)N1c1ccccc1 (configuration not stated) 39.8 µM [inhibitor, single point]
Cc1ccc(C(C(=O)NCC2CCCO2)N(Cc2ccccc2F)C(=O)Cn2nnc(-c3cccs3)n2)cc1 (configuration not stated) 2.51 µM [inhibitor, partial curve]
COc1ccc(S(=O)(=O)N2CCC(N3CCCCC3)CC2)cc1 12.6 µM [inhibitor, partial curve]
O=C(OC1CCN(c2ncc(C(F)(F)F)cc2Cl)CC1)c1cccc(C(F)(F)F)c1 31.6 µM [inhibitor, single point]
CCS(=O)(=O)c1nc(S(=O)(=O)c2ccc(C)cc2)c(NCc2ccccn2)s1 14.1 µM [inhibitor, partial curve]
CCc1ccc2[nH]c(=O)c(CN(CCO)C(=O)NCc3ccccc3)cc2c1 39.8 µM [inhibitor, single point]
CCOC(=O)N1CCC(N(C(=O)Nc2ccc(Cl)c(Cl)c2)C(C)CC)CC1 (configuration not stated) 39.8 µM [inhibitor, single point]
CC(C)(C)OC(=O)C(Cc1ccc(OC(C)(C)C)cc1)NC(=O)CNC(=O)OCc1ccccc1 (stereo not drawn) (Cbz-Gly-[ξY](tBu)-OtBu) 20 µM [inhibitor, partial curve]
CN(C(=O)COc1cc(=O)n(C)c2ccccc12)c1ccc(Cl)cc1 31.6 µM [inhibitor, single point]
COc1cc(OC)cc(-c2nc3ccccc3c(=O)o2)c1 14.1 µM [inhibitor, partial curve]
CCc1cc2c(nc1CC)CCN(CC/C(C)=N/O[C@@H](C)CN1CCCc3nc(C)c(C)cc31)C2 3.98 µM [inhibitor, single point]
Cc1cccc(-n2nc(C)c3c2NC2=C(C(=O)CCC2)C3c2ccccn2)c1 (configuration not stated) 35.5 µM [inhibitor, single point]
O=C(NCc1cccnc1)c1ccc(-c2cc3ccccc3oc2=O)cc1 22.4 µM [inhibitor, partial curve]
C/C(CC(=O)Nc1ccc(Cl)cc1Cl)=N\NC(=O)C(=O)NCCO 8.91 µM [inhibitor, single point]
CCN(CC)S(=O)(=O)c1cccc(C(=O)N/N=C/c2ccccn2)c1 22.4 µM [inhibitor, single point]
CC(=O)c1sc(Nc2nc3ccc(F)cc3s2)nc1C 39.8 µM [inhibitor, single point]
O=C(NCc1ccccc1)C(=O)NCC1COc2ccccc2O1 (configuration not stated) 39.8 µM [inhibitor, single point]
COc1cc(OC)c2c(-c3cccc(-c4ccc(C(F)(F)F)cc4)c3)cc(=O)oc2c1 28.2 µM [inhibitor, partial curve]
CC(=O)c1cccc(NC(=O)Nc2cccnc2)c1 39.8 µM [inhibitor, single point]
COc1ccc(OC)c(CN2CCC(C(=O)N(C)CCc3ccc(OC)c(OC)c3)CC2)c1 44.7 µM [inhibitor, single point]
N#Cc1cnn2ccc(-c3cc(N4CCOCC4)ccc3[N+](=O)[O-])nc12 35.5 µM [inhibitor, single point]
COC(=O)CCC(=O)OC1(C)C(=O)C2=CN(C3CC3)C(c3ccc(OC)cc3)=CC2=C(Br)C1=O (configuration not stated) 7.08 µM [inhibitor, single point]

activity, negative = inhibition, inactive:
Cc1ccc(N(Cc2ccccc2)Cc2ccccc2)cc1 8.68% [at 13.5 µM]
